According to PubChem BioAssay AID1460 (National Center for Advancing Translational Sciences (NCATS), 2008):
“And” between values parts separate entries of the source, which are not always exact repeats. Equal values may be shown once. Hit rate of the full screen: of about 270,000 compounds, about 5,800 (2.1%) were called active. This list was built around the results that the source calls inconclusive (neither active nor inactive); the mix of calls is not that of the screen. Calls follow the shape of the dose curve; as a rule, active = well fitted inhibition curve with a large enough effect; inconclusive = small, poorly fitted or top-dose-only effect; inactive = flat fitted curve, though single readings scatter. Potencies beside an inconclusive call are fits to weak or partial responses and may not hold up.

These molecules were tested against Microtubule-associated protein tau (Homo sapiens) (UniProt P10636) (assay: qHTS for Inhibitors of Tau Fibril Formation, Thioflavin T Binding). Conditions: recombinant tau K18 P301L (four-repeat tau fragment), heparin-induced fibrillization, ThT fluorescence; series mostly up to 57.4 µM; activity, negative = inhibition: at the top concentration.
Method in brief: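 Recombinant human tau K18 fragment […] carrying P301L, 15 uM unlabeled plus 0.24 uM Alexa 594-labeled, was fibrillized with 20 uM heparin in 100 mM sodium acetate pH 7 for 6 hr at 37 C; 30 uM ThT fluorescence read after 1 hr.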
% is scaled to controls: 0 for no effect and ±100 for the full control effect; potency is read from the fitted curve at half-maximal effect; tags tell the direction and shape of the fitted curve.
Also: nearly all actives have a fitted effect of over 55% in size.

Chain of UniProt P10636 (P10636 whole entry, looked up, the tested form may be a part): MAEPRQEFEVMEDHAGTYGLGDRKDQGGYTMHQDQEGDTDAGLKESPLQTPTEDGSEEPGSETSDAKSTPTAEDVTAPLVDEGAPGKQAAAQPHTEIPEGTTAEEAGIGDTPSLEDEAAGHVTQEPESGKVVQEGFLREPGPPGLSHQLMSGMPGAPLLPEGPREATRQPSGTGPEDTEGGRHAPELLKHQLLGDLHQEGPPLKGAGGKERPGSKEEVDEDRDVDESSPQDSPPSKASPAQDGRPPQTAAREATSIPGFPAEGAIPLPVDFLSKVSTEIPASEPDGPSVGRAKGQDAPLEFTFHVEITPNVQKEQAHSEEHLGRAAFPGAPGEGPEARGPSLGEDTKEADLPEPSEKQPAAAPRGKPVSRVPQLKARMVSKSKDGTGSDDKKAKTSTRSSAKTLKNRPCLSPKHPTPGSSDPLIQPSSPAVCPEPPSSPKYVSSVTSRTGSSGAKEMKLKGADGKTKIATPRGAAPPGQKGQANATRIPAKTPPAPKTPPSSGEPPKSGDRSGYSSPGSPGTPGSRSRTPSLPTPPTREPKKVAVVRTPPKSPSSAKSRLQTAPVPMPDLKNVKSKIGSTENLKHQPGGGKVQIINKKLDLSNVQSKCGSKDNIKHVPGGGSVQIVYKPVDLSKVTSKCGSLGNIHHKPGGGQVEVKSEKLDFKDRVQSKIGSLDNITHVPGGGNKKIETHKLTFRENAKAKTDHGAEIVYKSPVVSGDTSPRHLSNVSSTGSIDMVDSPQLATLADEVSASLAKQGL

Row | SMILES | Potency | activity, negative = inhibition
1 | O=C1c2ccccc2C(=O)C12OC2c1ccc(Cl)cc1Cl (centres undefined) | active: 10 µM | 
2 | CCOc1cc(-c2ccc(OC(=O)c3ccccc3F)cc2)cc(=O)c2c(C)oc(C)c12 | inconclusive: 20 µM [inhibitor, single point] | 
3 | Cc1cc2c3c(c1)C(C)CC(C)(C)N3C(=O)C2=O (centres undefined) | inconclusive: 28.2 µM [inhibitor, single point] | 
4 | CCOC(=O)C(NC(=O)Nc1ccc(F)cc1F)(Oc1ccccc1)C(F)(F)F (centres undefined) | inconclusive: 17.8 µM [activator, partial curve] | 
5 | Cn1cccc1-c1nc2ccc(NC(=O)c3ccccc3)cc2[nH]1 | inconclusive: 12.6 µM [inhibitor, partial curve] | 
6 | Cc1cc(N/N=C/c2ccc(N(C)C)cc2)nc(NCc2ccccc2)n1 | active: 3.98 µM | 
7 | Cc1nn(-c2ccccc2)c2c1C(c1c(C)[nH]c(C#N)c1C)C(C#N)=C(N)O2 (centres undefined) | inconclusive: 20 µM [inhibitor, partial curve] | 
8 | COCCCNC(=S)NNC(=S)Nc1ccc(F)cc1F |  | inactive: -15.2%
9 | COc1cc2ccccc2cc1C(=O)Nc1ccc2oc(-c3ccc(F)cc3)nc2c1 | inconclusive: 0.398 µM [inhibitor, full curve] | 
10 | Cc1ccc(S(=O)(=O)Nc2cccc(Oc3cnccn3)c2)cc1 | inconclusive: 0.1 µM [activator, full curve, poor fit] | 
11 | Cc1c(Cl)cn2c(=O)cc(CN3CCN(c4ccccc4)CC3)nc2c1Cl | inconclusive: 5.62 µM [inhibitor, partial curve] | 
12 | CC(=C1C(=O)c2ccccc2C1=O)N1CCN(C/C=C/c2ccccc2)CC1 | active: 22.4 µM | 
13 | COc1cc(C(=O)O)cc(OC)c1OCc1cc(C(=O)O)oc1C |  | inactive: -8.28%
14 | COc1ccc(OC)c(/C=N/Nc2cc(C)nc(N3CCOCC3)n2)c1 | inconclusive: 0.891 µM [inhibitor, full curve, poor fit] | 
15 | Cc1c(Cl)cccc1-c1ccc(CNc2ccc3[nH]c(=O)[nH]c3c2)o1 | inconclusive: 3.55 µM [inhibitor, full curve] | 
16 | CCCCCCC(=O)Nc1ccc(C(=O)N2CCCC2)cc1 |  | inactive: -16.3%
17 | O=C(CSc1nc2ccccc2c(=O)[nH]1)c1ccc(O)c(O)c1 | inconclusive: 17.8 µM [inhibitor, single point] | 
18 | CCOC(=O)CNC(=O)c1cc(C)oc1C | inconclusive: 35.5 µM [inhibitor, partial curve] | 
19 | c1ccc(-c2nc(-c3ccco3)n3ccccc23)cc1 |  | inactive: -1.65%
20 | CCOc1cc(-c2nc3ccccc3s2)ccc1O | inconclusive: 3.16 µM [inhibitor, full curve] | 
21 | CC(=O)N(C(C)=O)N1C(=O)/C(=C/c2ccc(Cl)cc2)SC1=S | inconclusive: 28.2 µM [inhibitor, partial curve] | 
22 | CCN(c1cc(C)cc(C)c1)S(=O)(=O)c1nnc(NC(=O)C2CCCCC2)s1 | inconclusive: 15.8 µM [inhibitor, partial curve] | 

Row | SMILES | Potency | activity, negative = inhibition
23 | S=C(NCCc1ccccc1)NN=C1CCCCCC1 |  | inactive: -0.152%
24 | Cc1cc(-c2n[nH]c(=S)n2/N=C/C(Br)=C/c2ccccc2)n[nH]1 | active: 12.6 µM | 
25 | Cc1c(N=N/C(C(=O)Nc2ccccc2)=C(/O)c2ccccc2)c(=O)n(-c2ccccc2)n1C | inconclusive: 10 µM [inhibitor, partial curve] | 
26 | Cc1cc(C)nc(NC(=O)c2ccc(COc3ccccc3Cl)cc2)c1 | inconclusive: 12.6 µM [inhibitor, partial curve] | 
27 | O=C(/C=C/c1ccccc1Cl)c1ccc(O)cc1 | inconclusive: 14.1 µM [inhibitor, partial curve, poor fit] | 
28 | CC(C)C(=O)NNC(=O)CN1CCN(c2nc(-c3ccccc3)cs2)CC1 |  | inactive: 2.29%
29 | Cc1ccc(C)c(N2CCN(c3cnn(-c4nc5ccccc5s4)c(=O)c3Cl)CC2)c1 | inconclusive: 0.199 µM [inhibitor, single point] | 
30 | CCn1cc(C(=O)OCC(=O)c2ccc(Cl)cc2)c(=O)c2ccc(C)nc21 | inconclusive: 12.6 µM [inhibitor, partial curve, poor fit] | 
31 | Cc1onc(C(=O)Nc2sc3c(c2C#N)CCCC3)c1[N+](=O)[O-] | inconclusive: 39.8 µM [inhibitor, single point] | 
32 | CCc1ccc(CCC(=O)Nc2sc3c(c2C#N)CCCC3)o1 | inconclusive: 11.2 µM [inhibitor, partial curve] | 
33 | Cc1ccc2oc(/N=C(\N)NC(=O)C3CC3)nc2c1 | inconclusive: 8.91 µM [inhibitor, partial curve] | 
34 | O=C(CSc1nc2ccccc2[nH]1)NCc1ccco1 |  | inactive: -4.91%
35 | COC(=O)c1ccc(CSc2nnc(NCc3ccccc3)s2)o1 |  | inactive: -10.5%
36 | C/C(=N\Nc1ccccc1Cl)c1ccc(-n2ccnc2)cc1 | inconclusive: 8.91 µM [inhibitor, partial curve] | 
37 | Cc1ccc2nc(/C(C#N)=C\c3ccc(Oc4ccc([N+](=O)[O-])cn4)cc3)[nH]c2c1 | active: 5.01 µM | 
38 | COc1ccc(-n2c(C)cc(C(=O)CCl)c2C)cc1 | inconclusive: 25.1 µM [inhibitor, partial curve] | 
39 | COc1ccc(NC(=S)NN(C)C(=S)Nc2ccc(OC)cc2)cc1 | inconclusive: 15.8 µM [inhibitor, partial curve] | 
40 | CCCCOC(=O)Nc1ccc(N(C)C)cc1 | inconclusive: 8.91 µM [inhibitor, single point] | 
41 | Cc1ccccc1NC(=S)/C(=C(\[O-])c1ccc(C)c([N+](=O)[O-])c1)[n+]1ccccc1 | inconclusive: 39.8 µM [inhibitor, single point] | 
42 | COc1ccccc1CN=Cc1[nH]c2ccc(Br)c(Cl)c2c1O | inconclusive: 31.6 µM [inhibitor, partial curve] | 
43 | Cc1ccn2c(Nc3ccccc3C)c(-c3ccccn3)nc2c1 | inconclusive: 28.2 µM [inhibitor, partial curve] and inconclusive: 22.4 µM [inhibitor, partial curve] | 
44 | Nc1ccc(NC(=O)NC2CCCCC2)cc1[N+](=O)[O-] | inconclusive: 12.6 µM [inhibitor, partial curve] | 
